Assay results as given in the antibiotic and cytotoxicity screens of Wong et al. (2023).
The list shows a part of the results.

Tests used:
HSkMC = human skeletal muscle cells; experiment: cytotoxicity call (relative viability < 0.9); conditions: 10 µM
HepG2 = experiment: cytotoxicity call (relative viability < 0.9); conditions: 10 µM
S. aureus RN4220 = experiment: growth inhibition call (relative growth <= 0.2); conditions: 50 µM

Compound	cytotoxicity call (HSkMC)	cytotoxicity call (HepG2)	growth inhibition call (S. aureus RN4220)
COc1ccc(C#Cc2cnc3c(c2)C(=O)N([C@H](C)CO)C[C@H](C)[C@H](CN(C)S(=O)(=O)c2ccc(C)cc2)O3)cc1OC	inactive	inactive	inactive
COc1ccc(S(=O)(=O)Nc2ccc3c(c2)C(=O)N([C@@H](C)CO)C[C@H](C)[C@H](CN(C)C(=O)C2CCCCC2)OCCCC[C@H](C)O3)cc1	inactive	inactive	inactive
C[C@H](CO)N1C[C@H](C)[C@@H](CN(C)S(=O)(=O)c2ccc(-c3ccccc3)cc2)OCc2cnnn2CCCC1=O	inactive	inactive	inactive
C[C@@H]1CCCCO[C@H](CN(C)C(=O)c2ccncc2)[C@H](C)CN([C@H](C)CO)C(=O)c2cc(NS(C)(=O)=O)ccc2O1	inactive	inactive	inactive
CC(C)NC(=O)N(C)C[C@@H]1Oc2ccc(NS(=O)(=O)c3ccc(Cl)cc3)cc2CC(=O)N([C@@H](C)CO)C[C@@H]1C	inactive	inactive	inactive
CCN(Cc1ccncc1)C(=O)C(CO)c1ccccc1 (stereo not drawn)	inactive	inactive	inactive
COc1ccc(S(=O)(=O)Nc2ccc3c(c2)C(=O)N([C@@H](C)CO)C[C@H](C)[C@H](CN(C)C(=O)Nc2ccc(C(F)(F)F)cc2)OCCCC[C@@H](C)O3)cc1	inactive	inactive	inactive
C[C@@H]1CN([C@@H](C)CO)S(=O)(=O)c2ccc(-c3cncnc3)cc2O[C@@H]1CN(C)C(=O)Cc1cccnc1	inactive	inactive	inactive
O=C(C[C@H]1C[C@H]2c3cc(NS(=O)(=O)c4ccc(F)cc4)ccc3O[C@H]2[C@@H](CO)O1)NC1CCCC1	inactive	inactive	inactive
CC(=O)NCc1nnnn1C1CCCCC1	inactive	inactive	inactive
NCCc1ccn[nH]1	inactive	inactive	inactive
O=S(=O)(O)NC1CCCCC1	inactive	active	inactive
C[C@@H]1CN([C@@H](C)CO)C(=O)c2cccc(NS(C)(=O)=O)c2O[C@@H]1CN(C)C(=O)Nc1ccccc1	inactive	inactive	inactive
N#Cc1ccc(-c2ccccc2)cn1	inactive	inactive	inactive
C[C@H](CO)N1C[C@H](C)[C@H](CN(C)C(=O)Nc2cccc3ccccc23)Oc2ncc(C#Cc3ccc(C(F)(F)F)cc3)cc2C1=O	inactive	inactive	inactive
COc1ccccc1OCCNCC(O)COc1cccc2[nH]c3ccccc3c12.O=P(O)(O)O (stereo not drawn)	inactive	active	inactive
CS(=O)(=O)N1C[C@H](NC(=O)C2CC2)[C@H]2OCCC[C@H]21	inactive	inactive	inactive
CC1(C)S[C@@H]2[C@H](NC(=O)[C@H](NC(=O)N3CCNC3=O)c3ccccc3)C(=O)N2[C@H]1C(=O)O	inactive	inactive	inactive
C[C@H]1CN([C@@H](C)CO)C(=O)Cc2cc(NC(=O)c3ccncc3)ccc2O[C@@H]1CN(C)S(=O)(=O)c1ccccc1	inactive	inactive	inactive
CO[C@H]1CN(C)C(=O)c2ccc(NC(=O)c3ccccc3)cc2OC[C@@H](C)N(C(=O)CN(C)C)C[C@@H]1C	inactive	inactive	inactive
CN(C)C[C@@]12COC[C@H]1CN(C(=O)N(C)C)C2	inactive	inactive	inactive

Compound	cytotoxicity call (HSkMC)	cytotoxicity call (HepG2)	growth inhibition call (S. aureus RN4220)
C[C@@H]1CN([C@H](C)CO)C(=O)c2cc(-c3ccc(C(=O)N(C)C)cc3)cnc2O[C@@H]1CN(C)C(=O)C1CC1	inactive	inactive	inactive
C[C@H](CO)N1C[C@H](C)[C@H](CN(C)CC2CCCCC2)OCCCC[C@H](C)Oc2ccc(NC(=O)CCC(F)(F)F)cc2C1=O	inactive	inactive	inactive
O=C(CN1CCOCC1)NCC[C@H]1CC[C@H](NC(=O)c2ccccc2F)[C@@H](CO)O1	inactive	inactive	inactive
CC(C)CC#Cc1ccc2c(c1)O[C@@H](CN(C)C(=O)C1CCOCC1)[C@H](C)CN([C@@H](C)CO)S2(=O)=O	inactive	inactive	inactive
COc1ccc(CNC(=O)C[C@H]2CC[C@@H]3[C@@H](COc4ccc(NC(=O)C(C)C)cc4C(=O)N3C)O2)cc1	inactive	inactive	inactive
Cc1ccc(S(=O)(=O)N(C)C[C@@H]2Oc3ccc(NC(=O)Nc4ccc(C(F)(F)F)cc4)cc3CC(=O)N([C@H](C)CO)C[C@H]2C)cc1	inactive	inactive	inactive
C[C@H]1CN([C@@H](C)CO)C(=O)c2cc(NC(=O)Cn3cnnn3)ccc2O[C@@H]1CN(C)Cc1ccc(C(=O)O)cc1	inactive	inactive	inactive
C[C@H]1CCCCO[C@@H](CN(C)S(=O)(=O)c2cccs2)[C@@H](C)CN([C@@H](C)CO)C(=O)c2cc(NC(=O)Nc3ccc(F)cc3)ccc2O1	inactive	active	inactive
CN(C)CC#Cc1ccc([C@@H]2[C@@H](CO)N3C(=O)CN(C(=O)CN(C)C)C[C@H]23)cc1	inactive	inactive	inactive
C[C@H](CO)N1C[C@H](C)[C@H](CN(C)Cc2ccccc2)Oc2ccc(NS(=O)(=O)c3cn(C)cn3)cc2C1=O	inactive	inactive	inactive
C[C@H](CO)N1C[C@H](C)[C@@H](CN(C)CC2CCCCC2)Oc2ccc(NC(=O)Cc3cn(C)c4ccccc34)cc2CC1=O	inactive	inactive	inactive
CCN1C(=O)C[C@@H]2[C@@H]1CCN2S(=O)(=O)c1cn(C)cn1	inactive	inactive	inactive
O=C1COC[C@@H](c2ccccc2)N1	inactive	inactive	inactive
C[C@H](CO)N1C[C@H](C)[C@H](CN(C)Cc2ccc(C(F)(F)F)cc2)Oc2ccc(NC(=O)Nc3ccc4c(c3)OCO4)cc2C1=O	inactive	inactive	inactive
O=C(C[C@H]1CC[C@H]2[C@@H](COC[C@H](O)CN2S(=O)(=O)c2cccc(Cl)c2)O1)NCc1ccc2c(c1)OCO2	inactive	inactive	inactive
C[C@@H]1CN([C@H](C)CO)C(=O)c2cc(NC(=O)Nc3ccc(F)cc3)ccc2O[C@@H](C)CCCCO[C@H]1CN(C)Cc1ccc(C(F)(F)F)cc1	active	active	inactive
C=CCCCCCCCCC(=O)O	inactive	inactive	inactive
O=P(O)(O)CN(CCN(CP(=O)(O)O)CP(=O)(O)O)CP(=O)(O)O	inactive	inactive	inactive
C[C@@H]1CN([C@@H](C)CO)C(=O)c2cc(NS(C)(=O)=O)ccc2O[C@@H](C)CCCCO[C@H]1CN(C)C(=O)c1ccncc1	inactive	inactive	inactive
C[C@@H]1CN([C@@H](C)CO)C(=O)c2cc(NS(=O)(=O)c3ccc(F)cc3)ccc2O[C@@H](C)CCCCO[C@H]1CN(C)C(=O)CCC(F)(F)F	inactive	inactive	inactive
C=Cn1cnc2c1c(=O)n(C)c(=O)n2C	inactive	inactive	inactive

Compound	cytotoxicity call (HSkMC)	cytotoxicity call (HepG2)	growth inhibition call (S. aureus RN4220)
C[C@@H]1CN([C@H](C)CO)C(=O)c2cccc(NS(=O)(=O)c3cccs3)c2O[C@H]1CN(C)S(=O)(=O)c1ccccc1	inactive	inactive	inactive
C[C@@H]1CN([C@@H](C)CO)C(=O)c2cccc(NS(=O)(=O)c3ccc(F)cc3)c2O[C@H]1CN(C)Cc1ccc(Oc2ccccc2)cc1	inactive	inactive	inactive
ON=C1/C(=N\O)CC2(C/C1=N/O)OCCO2	inactive	inactive	inactive
CCOC(=O)c1snc2c(=O)nc[nH]c12	inactive	inactive	inactive
Cc1ccc(S(=O)(=O)N(C)C[C@H]2Oc3ccc(NS(=O)(=O)c4cn(C)cn4)cc3CC(=O)N([C@H](C)CO)C[C@@H]2C)cc1	inactive	inactive	inactive
COc1ccccc1C#Cc1ccc2c(c1)O[C@@H](CN(C)Cc1ccncc1)[C@H](C)CN([C@H](C)CO)S2(=O)=O	active	inactive	inactive
NC(=O)c1ncn(C2OC(CO)C(O)C2O)c1N (stereo not drawn)	inactive	inactive	inactive
CC(C)NC(=O)N(C)C[C@H]1Oc2ccc(NS(=O)(=O)c3cccs3)cc2C(=O)N([C@H](C)CO)C[C@H]1C	inactive	inactive	inactive
C[C@@H]1CCCCO[C@H](CN(C)C(=O)Nc2ccccc2)[C@@H](C)CN([C@@H](C)CO)C(=O)c2cc(NS(=O)(=O)c3ccccc3)ccc2O1	inactive	inactive	inactive
COc1cc(C2Oc3cc(C4Oc5cc(O)cc(O)c5C(=O)C4O)ccc3OC2CO)ccc1O (stereo not drawn)	inactive	inactive	inactive
COC(=O)c1cn(C)cn1	inactive	inactive	inactive
COc1cc(C)c(C(=O)Oc2cc(C)c(C(=O)O)c(O)c2C)c(OC)c1C	inactive	inactive	inactive
C[C@@H]1CN([C@H](C)CO)C(=O)c2cc(NC(=O)CCC(F)(F)F)ccc2O[C@@H](C)CCCCO[C@@H]1CN(C)Cc1ccc(Cl)c(Cl)c1	active	active	inactive
C[C@H](CO)N1C[C@H](C)[C@H](CN(C)S(=O)(=O)c2cn(C)cn2)Oc2c(NC(=O)Nc3ccccc3)cccc2C1=O	inactive	inactive	inactive
C[C@@H]1CN([C@@H](C)CO)C(=O)c2cccc(NC(=O)Nc3ccc(C(F)(F)F)cc3)c2O[C@@H]1CN(C)Cc1ccc(C(=O)O)cc1	inactive	inactive	inactive
O=C(C[C@H]1C=C[C@@H](NC(=O)CN2CCOCC2)[C@H](CO)O1)NCCc1ccncc1	inactive	inactive	inactive
Nc1ccc(-n2cnnn2)cc1	inactive	inactive	inactive
C[C@H](CO)N1C[C@H](C)[C@H](CN(C)CC2CC2)OCCCC[C@H](C)Oc2ccc(NC(=O)Nc3ccc(C(F)(F)F)cc3)cc2C1=O	inactive	active	inactive
CC(C)NC(=O)Nc1cccc2c1O[C@H](CN(C)Cc1ccc(C(=O)O)cc1)[C@H](C)CN([C@H](C)CO)C2=O	inactive	inactive	inactive
